Laboratory results published in the supplement of paper PMC3334620.
Over roughly 33,000 sequences, “E-score (-0.5 to 0.5)” has its median near -0.016; the highest 2% begin near 0.32. The list shows a part of the results.

What follows are sequences tested against T1, Stp1 (UniProt B3LFK1) (assay: PBM E-score (8-mer binding enrichment) (E-score (-0.5 to 0.5)); higher = stronger / more preferred TF binding; most listed sequences are background and not binding sites). Details: protein concentration: 200 nM; construct: GST-full length.
T1 sequence: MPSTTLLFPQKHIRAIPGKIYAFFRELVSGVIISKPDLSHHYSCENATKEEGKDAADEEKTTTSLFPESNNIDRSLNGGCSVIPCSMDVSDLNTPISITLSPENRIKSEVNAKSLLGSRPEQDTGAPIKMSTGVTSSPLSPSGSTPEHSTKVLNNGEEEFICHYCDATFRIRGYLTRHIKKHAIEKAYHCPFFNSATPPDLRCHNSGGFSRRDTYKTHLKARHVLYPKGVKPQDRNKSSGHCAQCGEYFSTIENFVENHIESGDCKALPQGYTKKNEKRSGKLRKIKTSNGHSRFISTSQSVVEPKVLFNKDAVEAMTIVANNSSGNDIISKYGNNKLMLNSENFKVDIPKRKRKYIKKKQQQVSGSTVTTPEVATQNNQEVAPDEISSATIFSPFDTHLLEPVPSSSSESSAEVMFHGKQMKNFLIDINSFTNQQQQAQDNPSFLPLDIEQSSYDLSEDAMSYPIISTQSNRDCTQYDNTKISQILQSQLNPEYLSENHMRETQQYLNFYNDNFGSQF
Protocol: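 Universal 'all 10-mer' protein binding microarrays (Agilent AMADID 015681) probed with GST-tagged S. cerevisiae TFs (full-length or DBD) made by in vitro transcription/translation (PURExpress), about 100-200 nM. Bound TF was detected with fluorescent anti-GST. Each ungapped 8-mer (which stands for itself and its reverse complement) is scored by the PBM enrichment score (E-score), a modified Wilcoxon-Mann-Whitney statistic from -0.5 to +0.5, computed with the Universal PBM Analysis Suite. Scale: above 0.35 generally sequence-specific binding.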

Sequence | PBM E-score
TCGTATCA | 0.0263
AGTCCAGC | -0.0462
CATCAAGC | 0.0726
ATTCGGCA | 0.251
AATCCTAC | -0.142
ATTTCTAA | -0.00708
CCCAGAAC | -0.161
AGCGCGAC | -0.149
ACCGCTCG | 0.0738
CTAGCTAA | 0.0758
GTTGAGTA | 0.00016
ATTGGGTC | 0.0726
AGTCTTAA | -0.0956
CCATAACA | 0.148
AATTGTGA | 0.116
CGGAGTTC | 0.086
AGTCCCAA | -0.271
ATGAAACC | 0.13
AGGTTACC | 0.0337
CGAGGTTC | 0.0719
AACATTCC | -0.173
CGATTCCA | 0.0279
GGCCGCCC | -0.0498
GGTTAACC | -0.16
AAGCGTCA | 0.0621

Sequence | PBM E-score
AACCTTTG | -0.094
CGGCCCCC | -0.171
TGTTGAAA | 0.0365
CTTTAGGA | 0.039
CTAACCCA | -0.108
TAAGTCTA | -0.229
GCACTGAA | 0.0349
ATCAGCTC | -0.131
ATGTAGTA | 0.136
GAGAGTCA | -0.231
TCCACCCA | -0.225
ACGGGATC | 0.0283
TGTGAGAA | 0.113
GCCGCTAC | 0.132
AGTATGTG | -0.138
CACGTAAC | -0.0706
CAGCACGA | -0.0106
GAACGGCA | 0.468
ACCATCAT | -0.213
GTTAAATA | 0.00954
GGGATTTA | 0.153
AAGCTGTG | -0.106
ATGAGCTA | -0.0743
CAAGTCAG | -0.0288
AACTTAAG | 0.183

Sequence | PBM E-score
GAAGATAA | 0.168
AGGGAAAG | -0.0711
CGGTGGAA | -0.112
CTTGGATC | -0.078
ACGCAACT | -0.0117
CCCGATCG | -0.122
ATCTGCGA | -0.0578
GACCGATA | 0.0341
ATGGAGTC | -0.212
GAACTGCC | -0.0452
AAGCGCAA | 0.0218
AGACCAGA | -0.165
CCGCCTAG | -0.119
AATGGTCC | 0.0651
AGCAGTAG | -0.206
GTAGCTAC | -0.0578
ATTCCCTG | 0.135
GTCGAGCA | -0.132
CGCCTGAC | 0.0401
GATCCGCC | 0.15
ACTGTGGA | -0.104
AGGGAGGA | -0.204
GAATATCC | 0.0896
AGACGACT | -0.21
GGATATCC | -0.0505

Sequence | PBM E-score
CGGAACTA | 0.0347
ATTGCTAA | 0.0687
CACATTAG | -0.0393
CAGTTCGA | -0.08
CACTCTGA | -0.0382
AGTGGGAA | 0.0327
ATTGTTGG | 0.128
CTGTATCA | -0.102
GAAGAATC | -0.191
CTGACTAA | -0.00902
CGGTAGCC | -0.0248
GGGTATAA | -0.0426
CGATACCA | 0.0495
CCAATAGA | 0.102
ACATTCTA | 0.173
AACCGTGC | 0.26
CGAGCCCC | -0.231
GAGGCTGC | 0.0204
CCGGGTAA | -0.0766
GACTACCA | -0.268
CTGTAGTA | 0.222
AGCTGACT | -0.0709
CTGCGAAA | 0.0908
CGATCACC | -0.108
ACGACTCT | -0.119

Sequence | PBM E-score
GTTCATCA | -0.0633
GCAGATAC | 0.128
CTGATATA | 0.136
AGCACTAG | -0.0715
AACGTGCA | 0.0355
GATAGCCC | -0.217
GATTTTTA | 0.0265
CCTTCGAG | -0.147
CCGGCGTA | 0.0906
CATCTGGA | -0.0318
GGATTGTA | 0.00146
CCTCTCGA | -0.0526
AGCATCCG | -0.151
ATGCTCTG | -0.204
CAATGTTC | -0.165
AACGTGGG | -0.175
ATCGCACA | -0.129
GCGCATGA | 0.0374
CATGCACA | 0.0872
GGGACTTA | -0.269
CTACGAAG | -0.159
CAACCCTG | -0.232
ACCTACGT | -0.171
AGGGATTG | -0.0197
GCGCGGTA | 0.192

Sequence | PBM E-score
TACCTCCA | -0.168
AGTGCTAA | -0.148
ACACTACC | -0.183
GTCAGCCA | -0.182
AGTCATAT | -0.0128
ACCGATCG | -0.0193
AAGCTTAG | 0.0859
CGACAGGA | 0.0372
ATTTGGAG | -0.0679
ACCCTATC | -0.117
TCTGAGCA | -0.124
GAGACGTA | -0.074
CGTACTCC | -0.0311
CCTATTTC | 0.0538
ACATTAAA | 0.0894
CCTGTATA | 0.0272
ACAGCGAG | -0.135
CCACGTGA | 0.107
TGATTTAA | 0.221
GCAATTGC | 0.262
AAAGTCTC | -0.173
AACCTTAA | 0.0831
GGGTGCTA | -0.113
GGGGCTAA | -0.174
ACCGAAAA | 0.15

Sequence | PBM E-score
ATATAGGC | 0.0688
CAACAAGC | 0.0461
GCAGCACC | -0.237
ACACTAAA | 0.156
AGCGCGTC | -0.0749
ACTTCCTA | -0.21
CGTTAGAA | 0.0696
AGAGACAC | -0.183
ACGTAAAT | 0.0468
AGAAAACT | 0.086
GCGAACCC | 0.0483
ACGGACCC | -0.112
AATGTCGT | -0.0428
CGAACGTA | -0.0114
GGCCGCAA | 0.131
CCATGTCC | -0.134
CTGGGTCC | -0.323
CGGTGCTA | -0.0881
CATCTAAC | 0.0715
CAAACGCA | -0.0885
CATTGGAG | -0.074
AGCCCGGA | -0.298
